Measured values published in paper PMC12136788.
The other results are listed elsewhere or left out.

T1: UNK ZnF1-3 (human, UniProt Q9C0B0 31-174)
T1 sequence: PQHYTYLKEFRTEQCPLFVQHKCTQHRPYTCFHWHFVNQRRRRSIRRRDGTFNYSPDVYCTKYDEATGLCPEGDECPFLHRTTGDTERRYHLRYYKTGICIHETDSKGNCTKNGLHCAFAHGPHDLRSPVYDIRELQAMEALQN

B1: 84311146_84315497_1198_CDS_ENSG00000065609_ENST00000520302|human|control|control (ssRNA)
RNA: GGGAGUUCUACAGUCCGACGAUCAGCCAAAGAAUCCUCUCCCAAAAGGUCUCCCCAUGCAGUGGCUCCUCCAGCAGGUGGUGGUGGUGCUGGUGCUGCGGCUGCUGCUGCCCCUCCAGAGGAAAAGUCUGGCUGGAGGUCCAGCAACAGAGGAUUGAGCAUCA
B2: 14366535_14366655_1968_3pUTR_ENSMUSG00000013076_ENSMUST00000013220|mouse|control|control (ssRNA)
RNA: GGGAGUUCUACAGUCCGACGAUCUCACUCUAGCCUGCGCAUUGCUCAAAGCCUGGUCCAGGAUCUCGAUGUGCCUCCGAUGGUCCUCACUUGCCGUACGCACUGCUGCCAACUCCAUUUCCAACUUUUCCUUUUCCUUCAAGACAACAGAGGAUUGAGCAUCA
B3: 68591999_68592467_227_CDS_ENSG00000184939_ENST00000398253|human|control|control (ssRNA)
RNA: GGGAGUUCUACAGUCCGACGAUCAUAGAAAGGUCGUUGGAUUUCUCCCUCUGAUAUCCAUGGCUCUUCUCCUUGCUCCAAUUUGAAGAUCACCUCUGGCUUGGAAACUUGAUAUCCAAGAGAAACCAGGUGGCUAUAGUUCUCCAACAGAGGAUUGAGCAUCA
B4: 98117991_98118111_2156_3pUTR_ENSG00000125249_ENST00000245304|human|control|control (ssRNA)
RNA: GGGAGUUCUACAGUCCGACGAUCAUCUUUUCAGCAUUUAUGUAUAACUAAGUUAGCUGAAGACCCCUCUAUACUUGAUUGUAAAACUUAUGAAUAGGUUUUUCCUGUGCCAUUAGUCAUGCAAAUGAUAAAUACUUCACGACUCAACAGAGGAUUGAGCAUCA
B5: chr12:45383586:45383587:+_ENSMUSG00000036257_ENSMUST00000043082|perfect_dup|motif|central (ssRNA)
RNA: GGGAGUUCUACAGUCCGACGAUCGUAAAUAUAUAUAUCUACAGUCAGAUUAAUAGACAUAACUUAAAAAUCAUUUAUUUUCGGUGACAUUCUCUCACUUCUUGAACGCUUCAUUUAAGAAAUGCCAUAAUUCAUGGUCUUACUCAACAGAGGAUUGAGCAUCA
B6: chr11:54683702:54683703:+_ENSMUSG00000020267_ENSMUST00000020504|mus_mus|FALSE|FALSE (ssRNA)
RNA: GGGAGUUCUACAGUCCGACGAUCACAUUUCUUGCCAACAAUCAUUAAAUGUCCUAGAAGACUUUCAUCAUCAUCAUCUGCUACAGAAAUCUGGGAUAUAUGCUUCUUGGGUAUCACCAGAAAGUGUGUUGGUGCUUGAGGGGACAACAGAGGAUUGAGCAUCA
B7: chr12:51141157:51141158:+_ENSG00000066084_ENST00000301180|hu_hu|motif|central (ssRNA)
RNA: GGGAGUUCUACAGUCCGACGAUCGGACAUGCAAAAGAUCAAUAAAGCAGAAAGCAAAAAAUAAAUUAGAGGCCUGAGGAACGGCAAAACUAGAUAAUCAGCCUCUAAGUAAAUGGGAGUUGGCCACACUUUGAGAUUAACAGACAACAGAGGAUUGAGCAUCA
B8: chr8:117878989:117878990:-_ENSG00000164754_ENST00000297338|hu_hu|motif|central (ssRNA)
RNA: GGGAGUUCUACAGUCCGACGAUCCCAGAGGCCCUCUUUUACUGAGAACAAAAUGUGCGUAGAACAUUGUUCUGGCUGGCGGUGAAAACAGAAGAAAACCUUGCUCUCCGCUGGGAGUUGGGCGGGCUGGGUGGCCCGGGGAGGCAACAGAGGAUUGAGCAUCA
B9: chr1:95363323:95363324:-_ENSG00000117519_ENST00000538964|hu_hu|FALSE|FALSE (ssRNA)
RNA: GGGAGUUCUACAGUCCGACGAUCAAGGACUAAAUACUGAGCUCCUUCUGUGUGGAUCUAAUAAUCAAUGCCUUGGUCGCUAUAUUGGUAAUCUCUGGGGUAGUCAUCCUGGUACUCGCCAUGAUACUCAUCAGGGUAUUCUGCCAACAGAGGAUUGAGCAUCA
B10: chr2:104430758:104430759:+_ENSMUSG00000027176_ENSMUST00000028599|mus_hu|motif|central (ssRNA)
RNA: GGGAGUUCUACAGUCCGACGAUCGCUGAUUACAACGUGCGCACUGACCGUCGAUGGGAAGCUAGAAAAGAAAAAUUAAACGGAAAACCACCCCCAAAUCAGUAAAGUUACCCCCUGCCCAGCUGAGCCAGACCGCCAACACCACAACAGAGGAUUGAGCAUCA
B11: chr10:33190432:33190433:-_ENSG00000150093_ENST00000302278|hu_mus|hu_hu_hu_mus_True|58_68 (ssRNA)
RNA: GGGAGUUCUACAGUCCGACGAUCUACAUUUUCCAAACCUGCAUGUGAAUAAAACCCUGGCCACAGAGCCCUAAAGCUACCUAACUGUGACUAAGAUGCUGCUGCUGUGAGCUUGGUGUUGCAAAAUCCGCCUGAGUAGGAUUCCAACAGAGGAUUGAGCAUCA
B12: chrX:39613801:39613802:+_ENSMUSG00000025862_ENSMUST00000069619|mus_mus|FALSE|FALSE (ssRNA)
RNA: GGGAGUUCUACAGUCCGACGAUCCAAGUUUAAAGGUGGAUGGCUCUCCCCUUGUGGAUUAGGCUCCUUAAAAGCAAAUUCUAUACCAUCUUUGUGGAGCAUGGCAAUGGCUUCUCUGGUUUUCAAUUGAUCAAGUCCAAAAGUCAACAGAGGAUUGAGCAUCA
B13: chr12:16043544:16043545:+_ENSG00000023734_ENST00000419869|hu_mus|FALSE|FALSE (ssRNA)
RNA: GGGAGUUCUACAGUCCGACGAUCUUUGUUCAAGUCAUAUAUGCGCAGCAGUUUAUCCUGUCCCCCAGUUAGCAGGUAAUUGCUAUCCUGUGUGAAAUCCACAGUCUUGACAAUGUGCUUAUGAGCCAGGGUCAUCAAUUCAUCCAACAGAGGAUUGAGCAUCA
B14: 98028052_98028867_1086_CDS_ENSMUSG00000018160_ENSMUST00000107545|mouse|control|control (ssRNA)
RNA: GGGAGUUCUACAGUCCGACGAUCUGGAAUUGGCUGGGGAAAUUUCAAGAAGAAACACGCAGGAAGAUCAACACUGUUGGCACUAGUGACUGCGGAGAAAGAAGGGGUCCAUUUGUUGUCAGCUGGGUGUGACCCCAUAAUUAACAACAGAGGAUUGAGCAUCA

Each binder was assayed against T1, UNK ZnF1-3 (assay: nsRBNS (natural sequence RNA bind-n-seq); RBNS binding buffer (assumed for nsRBNS): 25 mM Tris pH 7.5, 150 mM KCl, 3 mM MgCl2, 0.01% Triton X-100, 500 ug/ml BSA, 20 U/ml SUPERase-In, 4 C; UNK is unkempt and MSI1 is Musashi-1; names of the RNAs are library labels; protein concentration not given here; high values mean tight binding).
B1 was tested, and the binding signal was 1.94 enrichment R.
Binder B2 has a binding signal of 0.802 enrichment R.
With B3 the binding signal was 0.826 enrichment R.
B4 showed a binding signal of 0.885 enrichment R.
Work on B5 yielded a binding signal of 0.379 enrichment R.
For B6, the binding signal was 1.14 enrichment R.
Work on B7 yielded a binding signal of 2.17 enrichment R.
Work on B8 yielded a binding signal of 1.5 enrichment R.
With B9 the binding signal was 0.809 enrichment R.
Binder B10 has a binding signal of 2.09 enrichment R.
B11 showed a binding signal of 0.961 enrichment R.
B12 was tested, and the binding signal was 1.01 enrichment R.
With B13 the binding signal was 0.834 enrichment R.
Work on B14 yielded a binding signal of 1.74 enrichment R.
